The whole screen tested about 340,000 compounds, of which about 12,000 (3.5%) were called active. The shares of active, inactive and inconclusive entries below differ from those in the screen. Calls follow the shape of the dose curve; as a rule, active = well fitted inhibition curve with a large enough effect; inconclusive = small, poorly fitted or top-dose-only effect, or another doubt; inactive = no such curve, though single readings can be large or run the other way. No potency is given beside an inconclusive call; the fits are too rough.
Assay: qHTS Assay for Inhibitors of Hepatitis C Virus (HCV)
Conditions: Huh7.5.1 HCVcc-Cre (HCVcc is cell-culture hepatitis C virus) infection, luciferase reporter, 44 h; activity change, negative = inhibition: at 41.8 µM (top of the series) unless noted
How it was run: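 After 44 h co-culture of compound, cells and HCVcc-Cre (~0.5 moi), substrate is added for 15 min at room temperature and luciferase measured over 15 sec. Cells were seeded at 1,000/well and pre-cultured 4 h.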
% is scaled to controls: 0 for no effect and ±100 for the full control effect; potency is read from the fitted curve at half-maximal effect; tags tell the direction and shape of the fitted curve.

Row | SMILES | Potency | activity change, negative = inhibition
1 | Cc1cccc(C)c1NC(=O)CN(C)C(=O)c1ccc(-c2cccc(C(F)(F)F)c2)o1 | inconclusive [inhibitor, single point] | 
2 | COc1cc(CN(C)CC2CCCN(CCc3ccc(F)cc3)C2)c(Cl)cc1O (stereo not drawn) | inconclusive [inhibitor, partial curve] | 
3 | Cc1ccccc1N(CC(=O)NC1CCCC1)C(=O)c1oc(C(C)(C)C)cc1C | inconclusive [inhibitor, full curve] | 
4 | COc1ccc(-n2nc(C(=O)NCC(=O)N3CCC(C)CC3)c3ccccc3c2=O)c(OC)c1 | inconclusive [inhibitor, single point] | 
5 | Fc1ccc(-c2noc(C3CCN(Cc4cccnc4)CC3)n2)cc1 | inconclusive [inhibitor, single point] | 
6 | CC(N=C1NS(=O)(=O)c2ccccc21)C(=O)Nc1ccc(F)cc1Cl (stereo not drawn) |  | inactive: 9.44%
7 | CCOc1cc(CNCC(C)C)cc(Cl)c1OCc1ccccc1 | inconclusive [inhibitor, partial curve, poor fit] | 
8 | Cc1ccc(Oc2ccccc2NC(=O)CSCC(=O)Nc2cc(C)on2)cc1 | inconclusive [inhibitor, full curve] | 
9 | COc1cccc(OC)c1C(=O)Nc1ccccc1Sc1ccccc1 | inconclusive [inhibitor, single point] | 
10 | COc1ccccc1OCC(=O)Nc1ccccc1C(=O)NC1CC1 | inconclusive [inhibitor, single point] | 
11 | COc1cccc2c1C(=O)c1c(O)c3c(c(O)c1C2=O)CC(O)(C(C)=O)CC3OC1CC(O)C(O)C(C)O1 (stereo not drawn) | inconclusive [inhibitor, full curve] | 
12 | CNC(=O)c1ccc(-c2sc3nc(N4CCOCC4)c4c(c3c2N)CCCC4)o1 | active: 11.2 µM | 
13 | O=C(CSc1nnc(-c2ccncc2)o1)Nc1cccc(F)c1 | inconclusive [inhibitor, partial curve] | 
14 | CC(C)(C)c1cc(NC(=O)CCl)n(-c2ccccc2)n1 | inconclusive [inhibitor, single point] | 
15 | CCn1c2ccccc2c2cc(NC(=O)COC(=O)c3ccccc3F)ccc21 | inconclusive [inhibitor, single point] | 
16 | Cc1ccc[n+](-c2nc3ccccc3nc2[N-]S(=O)(=O)c2ccccc2)c1 |  | inactive: 17.3%
17 | COc1ccccc1[C@@]1(C)ON(c2ccccc2C(F)(F)F)C1=O | active: 3.16 µM | 
18 | Cc1cccc(-c2nnc(SCC(=O)N3c4ccccc4CCc4ccccc43)n2C)c1 | inconclusive [inhibitor, single point] | 
19 | C(=N\N1CCN(c2ccccn2)CC1)/C1=C(N2CCOCC2)C(=C/c2ccccc2)/CC1 | inconclusive [inhibitor, partial curve] | 
20 | Cc1ccc(C)c(N2CCN(C(=S)Nc3ccc4nc(N5CCN(C)CC5)cc(C)c4c3)CC2)c1 | active: 2.51 µM | 
21 | c1ccc(-c2cnc(C3CCCCC3)o2)cc1 |  | inactive: 8.21%
22 | CC(C)Cn1nc(C(=O)Nc2cccc(S(=O)(=O)N3CCCC3)c2)c2ccccc2c1=O | inconclusive [inhibitor, partial curve] | 
23 | O=c1c2ccccc2nc(SCc2cn3ccsc3n2)n1-c1ccccc1F | inconclusive [inhibitor, single point] | 

Row | SMILES | Potency | activity change, negative = inhibition
24 | CCN(Cc1ccc2c(c1)OCCO2)C(=O)CN1C(=O)NC2(CCc3ccccc32)C1=O (stereo not drawn) |  | inactive: 2.73%
25 | O=C(NCCC1=CCCCC1)c1ccc(F)c(S(=O)(=O)N2CCOCC2)c1 |  | inactive: -17.5%
26 | O=C(COC(=O)c1ccccn1)Nc1ccc2c(c1)OCO2 |  | inactive: 3.52%
27 | CC(C)CCN(C(=S)NC(=O)C1CCCCC1)c1c(N)n(Cc2ccccc2)c(=O)[nH]c1=O | inconclusive [inhibitor, single point] | 
28 | COc1ccc(C(=O)C2CCCN(Cc3c(F)ccc(F)c3F)C2)c(OC)c1 (stereo not drawn) | inconclusive [inhibitor, single point] | 
29 | CC(C)CN(C(=O)c1ccc(C(F)(F)F)cc1)c1c(N)n(CC(C)C)c(=O)[nH]c1=O |  | inactive: 5.04%
30 | COC(=O)c1ccccc1NC(=O)C1CCCN(S(=O)(=O)c2ccccc2)C1 (stereo not drawn) | inconclusive [inhibitor, single point] | 
31 | CCOC(=O)CN(C(=O)CSc1nnc2c(n1)[nH]c1ccccc12)c1ccccc1 | inconclusive [inhibitor, partial curve] | 
32 | Cc1ccc(C[n+]2cccc(-c3ccccc3)c2)c(C)c1 | inconclusive [inhibitor, single point] | 
33 | CC12CN3CCN(CC(C3)/C1=N/NC(=O)Nc1ccccc1)C2 |  | inactive: 10.6%
34 | N#Cc1c(NC(=O)c2ccc(Cn3cc(Br)cn3)o2)sc2c1CCCCCC2 | inconclusive [inhibitor, partial curve] | 
35 | Cc1cc(C(=O)CSc2nc(N)cc(N)n2)c(C)n1-c1cccc(F)c1 | inconclusive [inhibitor, single point] | 
36 | COc1cc2c(cc1OC)CN(C(=S)Nc1cccc(Cl)c1C)CC2 | inconclusive [inhibitor, single point] | 
37 | CCn1c(SCC(=O)OC(C)C)nnc1-c1ccccc1OC |  | inactive: 30.5%
38 | CCc1c(C)nc2c(Br)cccc2c1SCCC#N | inconclusive [inhibitor, single point] | 
39 | CCCNC(=O)Cn1c(=O)/c(=C/c2ccc(-c3ccc([N+](=O)[O-])cc3)o2)s/c1=C\C(=O)C(C)(C)C | inconclusive [inhibitor, single point] | 
40 | Cc1ccccc1S(=O)(=O)Cc1ccc(C(=O)N2CCN(c3cccc(C)c3C)CC2)o1 | active: 5.01 µM | 
41 | CC(C)COc1ccc(C(=O)Nc2ncn[nH]2)cc1 |  | inactive: 0.373%
42 | COc1cccc(C(C)NC(=O)c2ccncc2)c1 (stereo not drawn) |  | inactive: 9.91%
43 | COc1ccc(-c2csc(NCCc3nc4cc(Cl)c(Cl)cc4n3CCCO)n2)cc1 | inconclusive [inhibitor, partial curve] | 
44 | O=C(CCCCCn1c(=O)[nH]c2ccccc2c1=O)NCCc1c[nH]c2ccccc12 | inconclusive [inhibitor, single point] | 
45 | O=C(CSc1nc2ccccc2c(=O)n1-c1ccc(OC(F)F)cc1)NC1CC1 |  | inactive: -4.84%
46 | Cc1ccc(C)c(S(=O)(=O)NCC(=O)Nc2sc3c(c2C(N)=O)CCC(C)C3)c1 (stereo not drawn) |  | inactive: 6.94%

Row | SMILES | Potency | activity change, negative = inhibition
47 | CC(C)Cc1ccc(CN2CCCC(NC(=O)CCN3CCCO3)C2)cc1 (stereo not drawn) | inconclusive [inhibitor, single point] | 
48 | O=C(NCc1cccc(C(F)(F)F)c1)c1cccc(S(=O)(=O)NCc2ccccc2)c1 | inconclusive [inhibitor, single point] | 
49 | CCn1c(=O)n(CC)c2cc(N3CCCC3)c(NC(=O)c3ccc(C)cc3)cc21 | inconclusive [inhibitor, single point] | 
50 | Cc1ccc2[nH]c(CNC(=O)C3CCCCC3)cc2c1 |  | inactive: -10.3%
51 | O=C(Nc1ccc(N2C(=O)c3cccc4cccc(c34)C2=O)cc1)c1ccc(N2CCCCC2)c([N+](=O)[O-])c1 |  | inactive: 1.73%
52 | O=C(N[C@H]1C/C=C\C[C@@H](CC(=O)N(CCO)Cc2ccccc2)C(=O)NC[C@H](c2ccccc2)OC1=O)OCC1c2ccccc2-c2ccccc21 | inconclusive [inhibitor, full curve, poor fit] | 
53 | CCOc1ccc(CCNC(=O)CSCC(=O)Nc2ccc(OC)cc2)cc1OCC | inconclusive [inhibitor, partial curve] | 
54 | c1ccc(-c2cn3nc(-c4ccccc4)cnc3n2)cc1 |  | inactive: 10.3%
55 | CCOC(=O)c1c(C)n(-c2ccc(C)cc2)c2ccc(OCC(O)CNCCCO)cc12 (stereo not drawn) | inconclusive [inhibitor, partial curve] | 
56 | Cc1ccc(NS(=O)(=O)c2cc(C(=O)NCCSC3CCCCC3)ccc2C)cc1 | inconclusive [inhibitor, partial curve, poor fit] | 
57 | CC(=O)c1sc2nc(=O)c(C)nn2c1C |  | inactive: 1.68%
58 | Cc1c(Cl)cccc1NC(=O)CSc1nnc(CCNC(=O)OC(C)(C)C)o1 |  | inactive: 4.48%
59 | C=C(C)COc1ccc2c(c1)CCC1C2CCC2(C)C(=O)C(=NO)CC12 (stereo not drawn) | inconclusive [inhibitor, partial curve] | 
60 | CC(C)=CC[N+]1(C)CCCCC1 |  | inactive: 24.6%
61 | CC1(C)CC(NC(=S)NC(=O)c2cc(Br)ccc2Cl)CC(C)(C)N1 | inconclusive [inhibitor, single point] | 
62 | Cc1noc(C)c1COC(=O)c1cccc(S(=O)(=O)N2CCOCC2)c1 | inconclusive [inhibitor, single point] | 
63 | COc1ccc(NC(=O)C2CCN(C(=O)Nc3ccccc3)CC2)cc1S(=O)(=O)N(C)C | inconclusive [inhibitor, partial curve] | 
64 | C#CC(=O)N(c1ccc(OC)cc1OC)C(C(=O)NC1CCCC1)c1cccs1 (stereo not drawn) | active: 1.26 µM | 
65 | CCC(C)C1/C=C\CC(NC(=O)OCC2c3ccccc3-c3ccccc32)CC(=O)N1Cc1ccccc1 (stereo not drawn) | inconclusive [inhibitor, single point] | 
66 | c1ccc(CN2CCC(Nc3nc(-c4cccnc4)nc4ccccc34)CC2)cc1 | inconclusive [inhibitor, single point] | 
67 | CC(=O)N1CCSc2ccc(S(=O)(=O)NCc3ccccc3)cc21 | inconclusive [inhibitor, single point] | 
68 | COC(=O)c1cccnc1NC(=S)NNC(=O)c1ccncc1 |  | inactive: -1.54%
